# In PubChem BioAssay AID686978 (National Center for Advancing Translational Sciences (NCATS), 2013):
# “And” between values parts separate entries of the source, which are not always exact repeats. Equal entries are not always repeated. Out of some 420,000 compounds screened, about 64,000 (15%) were called active. This list was built around the results that the source calls inconclusive (neither active nor inactive); the mix of calls is not that of the screen. Calls follow the shape of the dose curve; as a rule, active = well fitted inhibition curve with a large enough effect; inconclusive = small, poorly fitted or top-dose-only effect; inactive = flat fitted curve, though single readings scatter. Potencies of inconclusive entries are left out as doubtful fits.
# Experiment: qHTS for Inhibitors of human tyrosyl-DNA phosphodiesterase 1 (TDP1): qHTS in cells in absence of CPT; also: nearly all actives have a fitted effect of over 55% in size
# Conditions: DT40 Tdp1-/- hTDP1 cells, no CPT, ATP luminescence, 48 h; activity change, negative = growth inhibition: at 46.2 µM (top of the series) unless noted
# How it was run: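 No-CPT arm: Tdp1-/-;hTDP1 DT40 cells (400/well) plus compounds, incubated ≥48 hr at 37 °C. Readout CellTiter-Glo luminescence.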
# % is scaled to controls: 0 for no effect and ±100 for the full control effect; potency is read from the fitted curve at half-maximal effect; tags tell the direction and shape of the fitted curve.
Compound,Potency,"activity change, negative = growth inhibition"
Cc1ccc(C2Nc3ccc4ccccc4c3C3=C2C(=O)CC(C)(C)C3)o1 (stereo unspecified),"inconclusive [inhibitor, single point]",–
O=S(=O)(c1ccccc1)N1N=C(c2ccccc2)CC1c1ccccc1 (stereo unspecified),"inconclusive [inhibitor, single point]",–
COc1ccc(-n2nc(C(=O)Nc3cc(C)ccn3)c3c4ccccc4n(C)c3c2=O)cc1,inactive,–
CCCCn1c(=O)n(-c2cc(OC)ccc2OC)c(=O)c2c3c(sc21)CN(C(C)=O)CC3,"inconclusive [inhibitor, single point]",–
CCCCC(=O)Nc1nnc(SCC(=O)NC2CCCC2)s1,inactive,–
Cc1ccc(NS(=O)(=O)c2c(C)[nH]c(C)c2C(=O)N2CCCCC2)c(Br)c1,"inconclusive [inhibitor, single point]",–
CSCCC(NC(=O)c1ccccc1C)C(=O)O (stereo unspecified),inactive,–
CCC(C(=O)NCc1ccccc1OC)n1nc(C)n2c(cc3occc32)c1=O (stereo unspecified),inactive,–
COCCc1ccc(OC2(C)CCN(Cc3cccc(OCOC)c3)C2)cc1 (stereo unspecified),"inconclusive [inhibitor, single point]",–
Cc1oc(-c2ccccc2Cl)nc1CS(=O)(=O)CC(=O)NCc1ccc(F)cc1,active: 18.4 µM,–
O=C(Cc1cccs1)NNC(=S)NCc1ccc(Cl)cc1,inactive,–
O=C(c1cc2ccccc2[nH]1)c1cc2cc(O)ccc2[nH]1,active: 15.8 µM,–
Cc1ccccc1OCC(O)CN1CCN(c2ccc(Cl)cc2)CC1 (stereo unspecified),"inconclusive [inhibitor, single point]",–
COCCCN1C(=O)C(CC(=O)NC2CC2)CC(C(=O)N2CCOCC2)=C1C (stereo unspecified),inactive,–
CCN(c1ccc(OC)cc1)S(=O)(=O)N1CCCC(C(=O)NCc2ccc(OC(C)C)cc2)C1 (stereo unspecified),active: 14.6 µM,–
CC1=NN(C(N)=S)C(=O)C1N=Nc1c(C)n(C)n(-c2ccccc2)c1=O (stereo unspecified),inactive,–
CCCc1c(-c2cccc(Cl)c2)ncn1CCc1ccccc1OC,active: 16.4 µM,–
COc1ccc(C2=CCCCCC2)c(OC)c1OC,"inconclusive [inhibitor, single point]",–
COc1ccc(C(=O)Nc2ccc(N(C)Cc3ccccc3)c(C(=O)O)c2)cc1,inactive,–
Cc1cc(C)c2c(N)c(C(=O)Nc3nccs3)sc2n1,"inconclusive [inhibitor, single point]",–
CCOC(=O)CC1(c2ccc(OC)c(OC)c2)C(=O)c2ccccc2C1=O,inactive,–
CCOc1ccc(NC(=O)CCSc2nc3c(c(CC)c2C#N)C(=O)CC(C)(C)C3)cc1,active: 20.6 µM,–
Cc1ccc2nc(N(CCN(C)C)C(=O)c3ccc4c(c3)OCCO4)sc2c1,inactive,–
C[C@@H]1CN([C@@H](C)CO)C(=O)CCCn2nncc2CO[C@H]1CN(C)Cc1ccc(C(F)(F)F)cc1,"inconclusive [inhibitor, single point]",–

Compound,Potency,"activity change, negative = growth inhibition"
CCCOc1ccc(/C=C/C(=O)NCc2ccccc2)cc1,"inconclusive [inhibitor, partial curve]",–
CCOC(=O)c1cccc(NC(=O)C2CCCN(S(=O)(=O)c3c(C)n[nH]c3C)C2)c1 (stereo unspecified),"inconclusive [inhibitor, single point]",–
O=c1[nH]c(=O)c2[nH]c(=S)[nH]c2[nH]1,inactive,–
Cc1nc2[nH]c(=O)n(O)c(=O)c2s1,active: 25.9 µM,–
CC(C)Cn1c(N)c(C(=O)COC(=O)c2cc(C(F)(F)F)nc3ccccc23)c(=O)n(C)c1=O,active: 18.4 µM,–
CCOC(=O)C1=C(C)N(c2ccccc2)C(=O)/C1=C\c1cccs1,"inconclusive [inhibitor, single point]",–
Cc1ccccc1NC(=O)Cc1nc(COC(=O)Cc2c(F)cccc2Cl)cs1,"inconclusive [inhibitor, single point]",–
O=C(CN1CCCN(Cc2ccccc2F)S1(=O)=O)Nc1ccc(F)c(Cl)c1,"inconclusive [inhibitor, single point]",–
CC(C)NC(=O)N1[C@H](c2cccs2)[C@@H](C)C(=O)[C@@H](C)[C@@H]1c1cccs1,"inconclusive [inhibitor, partial curve]",–
O=C(CCCC(=O)N(CC(=O)NC1CCCC1)Cc1ccccc1Cl)Nc1ccccn1,"inconclusive [inhibitor, single point]",–
CN(C)S(=O)(=O)c1cc(NC2CC(=O)N(c3ccc(F)cc3)C2=O)ccc1Cl (stereo unspecified),inactive,–
Cc1csc(NC(=O)c2cn3ccccc3n2)n1,"inconclusive [inhibitor, single point]",–
COC(=O)c1cc(NC(=O)c2cc(-c3ccc(OC)cc3)oc2C(F)(F)F)ccc1N1CCOCC1,"inconclusive [inhibitor, single point]",–
CCOC(=O)C1=C(CN2CCN(c3ccccc3OC)CC2)NC(=O)NC1c1ccccc1 (stereo unspecified),"inconclusive [inhibitor, partial curve, poor fit]",–
C=CCOC(=O)C1=C(C)NC(C)=C(C(=O)OCC=C)C1c1ccc(C)o1,"inconclusive [inhibitor, single point]",–
Cc1cccc(C)c1-n1nnnc1-c1nc2ccccc2[nH]c1=O,"inconclusive [inhibitor, single point]",–
COc1ccc(CNC(=S)Nc2cc(C)cc(C)c2)cc1,"inconclusive [inhibitor, single point]",–
COCc1cc(C)nc2c1C(=O)NC(c1ccc(F)cc1)N2Cc1ccccc1 (stereo unspecified),inactive,–
CSc1nc(-c2ccccc2)cn1-c1ccc(NC(C)=O)cc1,"inconclusive [inhibitor, single point]",–
CC(=O)c1cnc2nc(SCc3ccc(Cl)cc3)nn2c1C,"inconclusive [inhibitor, partial curve]",–
COc1ccc(-c2nnc(SCC(=O)NCCC(C)C)nc2-c2ccc(OC)c(OC)c2)cc1OC,"inconclusive [inhibitor, single point]",–
COc1ccccc1N1CCN(C(=O)CCCN2C(=O)c3cccc4cccc(c34)C2=O)CC1,active: 29.1 µM,–
CCOc1cccc2sc(NN)nc12,"inconclusive [inhibitor, partial curve, poor fit]",–
O=C(/C=C/c1ccco1)Nc1ccc2c(c1)OCO2,"inconclusive [inhibitor, partial curve]",–

Compound,Potency,"activity change, negative = growth inhibition"
CC(OC(=O)CNC(=O)c1ccc2ccccc2c1)C(=O)N(C)C1CCCCC1 (stereo unspecified),inactive,–
COCC(C)NC(=O)CCS(=O)(=O)c1nc(-c2ccc(OC)cc2)cc(C(F)(F)F)n1 (stereo unspecified),active: 4.61 µM,–
C[C@@H]1CN([C@@H](C)CO)S(=O)(=O)c2ccc(Br)cc2O[C@@H]1CN(C)C(=O)c1ccccn1,inactive,–
COC(=O)c1cc2oc(C)cc2n1CC(=O)Nc1ccc(C(C)C)cc1,active: 20.6 µM,–
Cc1ccc2cc(/C=N/NC(=O)c3ccccc3O)c(Cl)nc2c1,"inconclusive [inhibitor, single point]",–
Cc1ccc(C(=O)O/N=C/C2=C(Cl)c3ccccc3CC2)cc1,"inconclusive [inhibitor, partial curve]",–
CC(CCc1ccc(O)cc1)NC1c2ccccc2-c2ccccc21 (stereo unspecified),"inconclusive [inhibitor, single point]",–
O=C(COC(=O)CCc1ccc(S(=O)(=O)N2CCOCC2)cc1)NC1CCCCCC1,"inconclusive [inhibitor, full curve, poor fit]",–
CCCCC[C@H](O)/C=C/[C@H]1C=CC(=O)[C@@H]1CCCCCCC(=O)O,–,inactive: -0.0256% [at 4.12 µM]
CCN(CC)C(=O)C1=C(C)N(Cc2ccc(OC)cc2)C(=O)C(CC(=O)NCc2cccs2)C1 (stereo unspecified),"inconclusive [inhibitor, single point]",–
CC(Oc1ccc2c3c(c(=O)oc2c1)CCCC3)C(=O)NCCN1CCOCC1 (stereo unspecified),inactive,–
O=C(NCc1c(Cl)cccc1Oc1ccccc1)c1ccccc1,"inconclusive [inhibitor, single point]",–
NCCCCCCNS(=O)(=O)c1ccc2c(Cl)cccc2c1,active: 11.9 µM and active: 11.2 µM,–
CCN(CC)C(C(=O)Nc1ccc(C(C)C)cc1)c1ccc2c(c1)OCO2 (stereo unspecified),"inconclusive [inhibitor, single point]",–
S=c1nc[nH]c2c1ncn2C1CCCO1 (stereo unspecified),"inconclusive [inhibitor, partial curve]",–
N#C/C(=C\c1ccc(OCc2ccc(Cl)cc2)cc1)C(=O)Nc1cccc(C(=O)O)c1,inactive,–
COc1ccc(CCn2c(S)nc3ccccc3c2=O)cc1,inactive,–
O=C(CCc1nc(-c2ccc(F)cc2)no1)NCc1ccccc1CN1CCOCC1,"inconclusive [inhibitor, partial curve, poor fit]",–
O=C(COc1ccc(F)cc1)Nc1nc(-c2ccccn2)cs1,active: 7.31 µM,–
Cc1ccc(-c2ccc(CN3C(C)C(=O)N(Cc4cn(CCC5OCCCO5)nn4)CCS3(=O)=O)cc2)cc1 (stereo unspecified),active: 23.1 µM,–
COc1ccc2sc(-c3ccc(SC)cc3)c(-c3ccc(O)cc3)c2c1,"inconclusive [inhibitor, single point]",–
Oc1c(Br)cc(/C=N/n2c(-c3ccccc3)n[nH]c2=S)c(O)c1Br,"inconclusive [inhibitor, single point]",–
CC1CCCC(NC(=O)Cn2c(Cl)nc3c2c(=O)n(C)c(=O)n3C)C1C (stereo unspecified),active: 20.6 µM,–
